This is an account of results in patent US20220389066A1, “POLYPEPTIDES” (Affibody AB, priority 2019, published 2022).

A short description of data set [1]: Circular dichroism (CD) spectroscopy, variable temperature measurement. The class given is physicochemical. Particulars: His6-tagged Z variants; CD at 221 nm, 20 to 80-90° C. Here is the method:
Circular dichroism (CD) spectroscopy analysis: The His6-Z variants produced in Example 2 were diluted to 25 μM in PBS or H2O. A CD spectrum at 250-195 nm was obtained at 20° C. In addition, a variable temperature measurement (VTM) was performed to determine the melting temperature (Tm). In the VTM, absorbance was measured at 221 nm while the temperature was raised from 20° C. to 80° C. (in some cases to 90° C.), with a temperature slope of 5° C./min. A new CD spectrum was obtained at 20° C. after the heating procedure, in order to study the refolding ability of the Z variants. The CD measurements were performed on a Jasco J-810 spectropolarimeter (Jasco Scandinavia AB) using a cell with an optical path length of 1 mm.
Circular dichroism (CD) spectroscopy analysis: The measurements were performed essentially as described in Example 3.
On the technique in general: Circular dichroism is widely used to follow secondary structure.

For the next data set, the target named is T1, b-HMGB1(disulfide) (Rattus norvegicus, UniProt P63159).
T1 construct: purchased HMGBiotech Srl, Milano, Italy
T1 sequence (P63159 1-215): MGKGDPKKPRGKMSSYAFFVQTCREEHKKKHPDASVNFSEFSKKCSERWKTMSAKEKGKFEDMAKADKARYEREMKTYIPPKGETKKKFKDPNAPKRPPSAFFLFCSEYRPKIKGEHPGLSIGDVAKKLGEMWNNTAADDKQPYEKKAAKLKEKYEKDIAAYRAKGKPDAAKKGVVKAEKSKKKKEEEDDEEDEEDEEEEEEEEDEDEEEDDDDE
Nature of the data set: ELISA screening against HMGB1(disulfide). The class given is binding. Particulars: target concentration 100 nM; at least 3× the blank control. On the procedure: (§1) ELISA screening of Z variants against reduced A-box and B-box: The binding of Z variants to HMGB1 was analyzed in ELISA assays. Half-area 96-well ELISA plates (Greiner, cat. no. 675061) were coated at 4° C. overnight with 2 μg/ml of an anti-ABD goat antibody (produced in-house) diluted in coating buffer (50 mM sodium carbonate, pH 9.6; Sigma, cat. no. C3041). The antibody solution was poured off and the wells were washed in water and blocked with 100 μl of PBSC (PBS supplemented with 0.5% casein; Sigma, cat. no. C8654) for 1-3 h at RT. The blocking solution was discarded and 50 μl periplasmic solutions, diluted 1:16 with PBST 0.05%, were added to the wells and incubated for 1.5 to 2.5 h at RT under slow agitation. As a negative control, periplasmic ABD was added. The supernatants were poured off and the wells were washed 4 times with PBST 0.05%. Then, 50 μl of either b-GST-boxA(red), at a concentration of 2 nM, or b-GST-boxB(red), at a concentration of 100 nM, in PBSC+1-2 mM DTT, was added to each well of A-box binding Z-variants or B-box binding Z-variant, respectively. The plates were incubated for 1 h at RT followed by washes as described above. Streptavidin conjugated HRP (Thermo Scientific, cat. no. N100) diluted 1:30,000 in PBSC+1-2 mM DTT, was added to the wells and the plates were incubated for approximately 45 min. After washing as described above, 50 μl ImmunoPure TMB substrate (Thermo Scientific, cat. no. 34021) was added to the wells and the plates were treated according to the manufacturer's recommendations. The absorbance at 450 nm was measured using a multi-well plate reader, Victor3 (Perkin Elmer).
(§2) ELISA screening of Z variants against the disulfide form of A-box and against HMGB1: To find out if selected A-box binding Z variants could also bind the disulfide form of HMGB1, A-box binding variants were screened in the same setup as described above against b-boxA(disulfide) at a concentration of 1000 nM and b-HMGB1(disulfide) at a concentration of 100 nM in PBSC.).
Background: In an ELISA, binding on a coated surface is turned into a signal by an enzyme label.

In a further data set the target is T2, boxA(disulfide) (Homo sapiens, UniProt P09429).
T2 construct: purchased HMGBiotech Srl, Milano, Italy
T2 sequence (P09429 1-89): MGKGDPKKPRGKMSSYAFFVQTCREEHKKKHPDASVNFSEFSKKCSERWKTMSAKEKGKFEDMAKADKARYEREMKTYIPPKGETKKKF
As to the kind of experiment: Biacore binding analysis of mutated Z variants, immobilized boxA(disulfide). Particulars: His6-tagged Z variant as analyte; HBS-EP; 1:1 model. Here is the method:
(§3) Binding analysis of mutated Z variants: A binding analysis was performed using a Biacore 2000 instrument. All alanine mutated Z variants, together with the original Z variant ZH 01, were analyzed against GST-boxA(red), HMGB1(red), boxA(disulfide) and HMGB1(disulfide). The immobilizations and Biacore analyses were performed essentially as described in Example 3. However, in these analyses, the different targets were directly coupled to separate flow cells of different CM5 chip surfaces and a flow rate of 30 μl/min was used. The ligand immobilization levels on the surfaces were 1410 RU for GST-boxA(red), 1380 RU for HMGB1(red), 540 RU for boxA(disulfide) and 2900 RU for HMGB1(disulfide). The analytes, i.e. the Z variants, were each diluted in HBS-EP buffer (or in HBS-EP+2 mM DTT for use in analysis with reduced targets GST-boxA(red) and HMGB1(red)), within a concentration range of 50 to 1350 nM and injected for 3 min, followed by dissociation in running buffer for 35 min. No regeneration buffer was used in the analyses. Instead, the dissociation time was enough for all binders to dissociate from the chip surfaces. HBS-EP was used as running buffer for targets boxA(disulfide) and HMGB1(disulfide) while HBS-EP+2 mM DTT was used for reduced targets GST-boxA(red) and HMGB1(red). The dissociation constants were calculated as in Example 3.
For orientation: In SPR one partner is held on a chip, and binding of the other changes the refractive index at the surface.

For another data set, the target named is T3, GST-boxA(red) (Homo sapiens, UniProt P09429).
T3 construct: purchased HMGBiotech Srl, Milano, Italy
T3 sequence (P09429 with tags, fused parts or gaps): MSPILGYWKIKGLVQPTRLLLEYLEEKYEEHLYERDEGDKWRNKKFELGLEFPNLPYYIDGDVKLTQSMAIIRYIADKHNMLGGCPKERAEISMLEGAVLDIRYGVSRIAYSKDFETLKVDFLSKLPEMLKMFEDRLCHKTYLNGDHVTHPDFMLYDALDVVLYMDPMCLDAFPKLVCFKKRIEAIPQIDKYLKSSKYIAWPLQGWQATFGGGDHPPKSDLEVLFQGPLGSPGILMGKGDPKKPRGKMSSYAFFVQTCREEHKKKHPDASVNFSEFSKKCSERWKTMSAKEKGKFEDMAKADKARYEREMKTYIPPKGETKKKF
As to the kind of experiment: Biacore binding analysis of mutated Z variants, immobilized GST-boxA(red). To be noted: His6-tagged Z variant as analyte; HBS-EP + 2 mM DTT; 1:1 model. On the procedure:
as §3

For another data set, the target named is T4, HMGB1(red) (Rattus norvegicus, UniProt P63159).
T4 construct: purchased HMGBiotech Srl, Milano, Italy
T4 sequence (P63159 1-215): T1 sequence (P63159 1-215)
As to the kind of experiment: Biacore binding analysis of mutated Z variants, immobilized HMGB1(red). Particulars: His6-tagged Z variant as analyte; HBS-EP + 2 mM DTT; 1:1 model. Here is the method:
as §3

The next data set addresses T5, HMGB1(disulfide) (Rattus norvegicus, UniProt P63159).
T5 construct: purchased HMGBiotech Srl, Milano, Italy
T5 sequence (P63159 1-215): T1 sequence (P63159 1-215)
Nature of the data set: Biacore binding analysis of mutated Z variants, immobilized HMGB1(disulfide). Particulars: His6-tagged Z variant as analyte; HBS-EP; 1:1 model. On the procedure:
as §3

In another data set the target is T6, b-GST-boxA(red) (Homo sapiens, UniProt P09429).
T6 construct: purchased HMGBiotech Srl, Milano, Italy
T6 sequence (P09429 with tags, fused parts or gaps): as above
As to the kind of experiment: ELISA screening of Z variants against reduced A-box. The class given is binding. To be noted: target concentration 2 nM; periplasmic Z-ABD fusion; at least 3× the blank control. On the procedure:
as §1

Another data set addresses T7, b-boxA(disulfide) (Homo sapiens, UniProt P09429).
T7 construct: purchased HMGBiotech Srl, Milano, Italy
T7 sequence (P09429 1-89): T2 sequence (P09429 1-89)
Nature of the data set: ELISA screening against the disulfide form of A-box. The class given is binding. Particulars: target concentration 1000 nM; at least 3× the blank control. Here is the method:
as §1, §2

For orientation: Kd means a measure of binding affinity in units of concentration.

As for “ZH01: HMGB1 A-box binding Z variant, 58 amino acid residues, from primary phage display selection (VDAKYAKEDWDAFWEIIWLPNLTDAQQRAFIYKLEDDPSQSSELLSEAKKLNDSQAPK; Engineered HMGB1 binding polypeptide)”, in data set [1], the “Tm (° C.)” value stood at 49 °C. In addition, the “ELISA response against b-HMGB1(disulfide)” value with b-HMGB1(disulfide) came to 3.07 AU. Further, the dissociation constant (Kd) with boxA(disulfide) is 380 nM; in the data set with GST-boxA(red), 25 nM; with HMGB1(red), 12 nM; with HMGB1(disulfide) it was 170 nM. In addition, the “average ELISA response against b-GST-boxA(red)” value with b-GST-boxA(red) was 0.7 AU. Also, the “ELISA response against b-boxA(disulfide)” value in the data set with b-boxA(disulfide) came out at 3.06 AU.
